# The campaign covered roughly 340,000 compounds. About 1,000 (0.29%) were called active. This list was built around the results that the source calls inconclusive (neither active nor inactive); the mix of calls is not that of the screen. Rule as the data show it: inconclusive = inhibition above about 29% without an active follow-up result; inactive = below that.
# Molecular target: Genome polyprotein (Dengue virus type 2 (strain 16681-PDK53)) (UniProt P29991)
# Test: Dengue-2 NS5 methyltransferase inhibitors, primary screen, biochemical, confirmation dose response (AID 588689)
# Settings: Dengue-2 NS5 methyltransferase capping enzyme assay, at 25 µM, active compounds read high
# Chain of UniProt P29991 (P29991 whole entry, looked up): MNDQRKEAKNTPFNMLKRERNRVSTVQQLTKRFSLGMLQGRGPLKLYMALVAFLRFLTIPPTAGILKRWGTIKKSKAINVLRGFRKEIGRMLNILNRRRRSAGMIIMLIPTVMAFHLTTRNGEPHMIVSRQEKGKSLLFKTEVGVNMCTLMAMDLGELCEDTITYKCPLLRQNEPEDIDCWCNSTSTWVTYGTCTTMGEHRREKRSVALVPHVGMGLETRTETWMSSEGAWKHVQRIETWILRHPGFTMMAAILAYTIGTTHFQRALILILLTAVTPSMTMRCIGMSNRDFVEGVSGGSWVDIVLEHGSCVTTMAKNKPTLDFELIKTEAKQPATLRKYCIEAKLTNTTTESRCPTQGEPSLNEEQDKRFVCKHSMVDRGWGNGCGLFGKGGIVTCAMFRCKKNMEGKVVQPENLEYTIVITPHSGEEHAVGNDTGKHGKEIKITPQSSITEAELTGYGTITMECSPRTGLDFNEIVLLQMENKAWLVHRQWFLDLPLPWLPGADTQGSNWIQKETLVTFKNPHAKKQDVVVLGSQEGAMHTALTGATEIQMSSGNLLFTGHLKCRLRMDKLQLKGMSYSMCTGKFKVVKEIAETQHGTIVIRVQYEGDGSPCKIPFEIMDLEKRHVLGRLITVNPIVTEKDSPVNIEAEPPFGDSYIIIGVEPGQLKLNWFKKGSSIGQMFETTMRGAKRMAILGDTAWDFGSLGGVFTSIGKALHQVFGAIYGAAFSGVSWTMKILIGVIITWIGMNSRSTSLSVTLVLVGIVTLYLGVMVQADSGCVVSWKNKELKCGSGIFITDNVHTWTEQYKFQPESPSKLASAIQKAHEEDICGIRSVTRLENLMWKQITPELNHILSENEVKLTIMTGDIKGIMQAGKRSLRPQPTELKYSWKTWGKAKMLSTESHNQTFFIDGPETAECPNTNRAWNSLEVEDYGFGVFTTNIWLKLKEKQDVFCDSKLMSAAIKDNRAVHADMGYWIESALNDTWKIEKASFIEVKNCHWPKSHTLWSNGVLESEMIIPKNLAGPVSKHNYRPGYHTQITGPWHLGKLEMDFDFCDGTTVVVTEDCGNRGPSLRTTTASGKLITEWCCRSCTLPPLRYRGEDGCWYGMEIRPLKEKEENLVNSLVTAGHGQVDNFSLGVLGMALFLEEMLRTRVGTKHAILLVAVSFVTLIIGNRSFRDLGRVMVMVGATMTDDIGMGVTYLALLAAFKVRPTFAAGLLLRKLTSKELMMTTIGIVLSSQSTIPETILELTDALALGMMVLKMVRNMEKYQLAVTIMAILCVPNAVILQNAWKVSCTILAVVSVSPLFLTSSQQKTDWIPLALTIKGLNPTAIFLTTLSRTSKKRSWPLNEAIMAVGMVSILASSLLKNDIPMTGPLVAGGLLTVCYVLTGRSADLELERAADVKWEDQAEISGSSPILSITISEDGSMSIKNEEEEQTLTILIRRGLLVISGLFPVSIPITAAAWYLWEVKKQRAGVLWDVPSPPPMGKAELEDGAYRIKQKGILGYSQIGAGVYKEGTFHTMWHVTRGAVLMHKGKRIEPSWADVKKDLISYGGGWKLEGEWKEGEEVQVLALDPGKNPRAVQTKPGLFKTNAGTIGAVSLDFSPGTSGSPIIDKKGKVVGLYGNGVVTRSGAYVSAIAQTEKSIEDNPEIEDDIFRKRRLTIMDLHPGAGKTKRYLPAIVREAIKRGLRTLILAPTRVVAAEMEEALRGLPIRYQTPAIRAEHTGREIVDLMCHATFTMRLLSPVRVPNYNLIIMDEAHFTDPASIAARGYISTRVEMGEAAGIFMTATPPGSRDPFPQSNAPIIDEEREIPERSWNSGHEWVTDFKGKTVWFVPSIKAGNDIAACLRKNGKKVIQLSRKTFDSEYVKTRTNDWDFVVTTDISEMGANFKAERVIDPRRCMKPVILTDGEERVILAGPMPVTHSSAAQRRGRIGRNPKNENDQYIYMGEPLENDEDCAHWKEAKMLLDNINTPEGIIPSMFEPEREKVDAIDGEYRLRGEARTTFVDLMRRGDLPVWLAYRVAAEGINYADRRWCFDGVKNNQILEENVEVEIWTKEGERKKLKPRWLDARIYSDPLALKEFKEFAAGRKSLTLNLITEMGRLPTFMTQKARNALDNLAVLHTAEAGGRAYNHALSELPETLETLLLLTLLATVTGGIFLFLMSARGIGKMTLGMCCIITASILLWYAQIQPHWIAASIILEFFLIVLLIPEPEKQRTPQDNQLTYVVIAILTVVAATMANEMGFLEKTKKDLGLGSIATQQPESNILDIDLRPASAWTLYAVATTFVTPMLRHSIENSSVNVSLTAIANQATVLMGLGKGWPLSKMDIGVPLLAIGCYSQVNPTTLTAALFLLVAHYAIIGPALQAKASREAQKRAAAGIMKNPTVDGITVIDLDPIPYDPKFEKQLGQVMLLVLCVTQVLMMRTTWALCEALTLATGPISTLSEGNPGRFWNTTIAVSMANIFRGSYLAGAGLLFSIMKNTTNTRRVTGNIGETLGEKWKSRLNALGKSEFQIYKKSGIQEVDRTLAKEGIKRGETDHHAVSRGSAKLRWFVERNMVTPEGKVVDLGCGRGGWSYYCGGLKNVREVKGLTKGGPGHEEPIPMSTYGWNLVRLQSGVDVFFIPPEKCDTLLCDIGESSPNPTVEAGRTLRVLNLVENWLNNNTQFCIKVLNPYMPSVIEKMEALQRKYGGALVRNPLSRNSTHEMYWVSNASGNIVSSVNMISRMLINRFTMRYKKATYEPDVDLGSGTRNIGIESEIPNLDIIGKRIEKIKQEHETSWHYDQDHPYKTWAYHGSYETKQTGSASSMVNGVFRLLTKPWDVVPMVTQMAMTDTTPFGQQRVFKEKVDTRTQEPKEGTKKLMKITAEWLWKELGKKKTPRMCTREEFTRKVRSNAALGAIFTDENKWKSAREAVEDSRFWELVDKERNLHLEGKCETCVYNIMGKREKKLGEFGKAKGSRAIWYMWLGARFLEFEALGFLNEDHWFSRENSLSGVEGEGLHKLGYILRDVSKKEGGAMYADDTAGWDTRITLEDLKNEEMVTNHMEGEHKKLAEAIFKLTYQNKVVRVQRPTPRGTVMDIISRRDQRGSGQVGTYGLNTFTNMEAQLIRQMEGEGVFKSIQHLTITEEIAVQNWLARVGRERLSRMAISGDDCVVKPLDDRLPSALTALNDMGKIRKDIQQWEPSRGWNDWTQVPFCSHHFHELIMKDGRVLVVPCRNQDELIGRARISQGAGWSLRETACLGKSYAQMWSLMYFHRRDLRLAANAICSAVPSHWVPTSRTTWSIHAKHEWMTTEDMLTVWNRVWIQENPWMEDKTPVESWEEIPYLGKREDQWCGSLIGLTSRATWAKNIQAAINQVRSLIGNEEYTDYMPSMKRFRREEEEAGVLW
row,SMILES,inhibition
1,COCCCn1c(=O)/c(=C\c2ccccc2OC(F)F)s/c1=C(/C#N)C(=O)NCCOC,inconclusive: 36.1%
2,O=C(O)c1[nH]c2ccc([N+](=O)[O-])cc2c1-c1ccccc1,inactive: 10.3%
3,CC(=O)Nc1ccc2cc3ccc(NC(C)=O)cc3nc2c1,inconclusive: 78.2%
4,CC(=O)c1ccc(OCCCC(=O)NC2=NCCS2)cc1,inconclusive: 152%
5,Cc1ccc(/C=C2\SC(=S)N(CCC(=O)NNC(=O)c3cccc(O)c3)C2=O)cc1,inconclusive: 31.4%
6,O=C(c1cc(O)c(O)c([N+](=O)[O-])c1)c1ccccc1F,inactive: -7.33%
7,Cc1cnn(C(=O)c2cc(-c3ccccn3)nc3ccc(Cl)cc23)c1,inactive: 8.88%
8,CCN(CCCCOC(=O)c1ccc(OC)c(OC)c1)C(C)Cc1ccc(OC)cc1 (stereo unspecified),inconclusive: 153%
9,COC(=O)c1c(-c2ccccc2)csc1NC(=O)C1CC=CCC1C(=O)O (stereo unspecified),inactive: -4.1%
10,COc1ccc(NC(=O)C2Cc3ccccc3CN2C(=O)c2ccccc2)cn1 (stereo unspecified),inconclusive: 49.4%
11,CC(=O)c1sc2nc(-c3cccs3)cc(C(F)(F)F)c2c1N,inconclusive: 47.8%
12,O=C(Nc1ccccc1)c1ccccc1NS(=O)(=O)c1ccc(Cl)s1,inactive: 10.3%
13,CCOc1ccc(N=C/C=C/c2ccccc2)c(O)c1,inconclusive: 49.3%
14,CC(C)N1CC=C2C(C#N)=C(N)C(C#N)(C#N)C(c3ccccc3)C2C1 (stereo unspecified),inconclusive: 102%
15,CCCN1C(=O)/C(=C/c2c(N3CCNC(=O)C3CC(=O)OCC)nc3c(C)cccn3c2=O)SC1=S (stereo unspecified),inconclusive: 45.3%
16,CC(C)OC(=O)CN1C(=O)S/C(=C/c2ccc(N3CCCCC3)o2)C1=O,inconclusive: 48.8%
17,C=CCOc1ccc(/C=C2/C(=O)ON=C2C)cc1OC,inactive: 28.1%
18,COCCN(CCOC)Cc1c(O)ccc2c1O/C(=C\c1ccco1)C2=O,inconclusive: 67.5%
19,COC(=O)C1=C(C(=O)OC)C(c2ccc(OC)c(OC)c2)c2sc(=O)[nH]c2S1 (stereo unspecified),inactive: 18%

row,SMILES,inhibition
1,O/C=c1\ccc2cccc3nc(C(F)(F)F)nc1c23,inconclusive: 60.1%
2,COc1cc2c3nnc(-c4ccc(F)cc4)c-3cn(Cc3ccc(C)cc3)c2cc1OC,inconclusive: 62.3%
3,Cc1ccc(C)c2[nH]c(=O)c(C(c3nnnn3Cc3ccccc3)N3CCc4ccccc4C3)cc12 (stereo unspecified),inconclusive: 88.3%
4,Cc1cc(C)n(Cc2ccc(C(=O)N/N=C/c3ccc(-c4ccc([N+](=O)[O-])cc4)o3)o2)n1,inconclusive: 33.5%
5,CCCc1nc(SCC(=O)Nc2nc3c(s2)CCCC3)c2ccccc2n1,inactive: 2.76%
6,CC(C)C(C(=O)O)N1C(=O)/C(=C/C=C/c2ccco2)SC1=S (stereo unspecified),inactive: 42.9%
7,Cc1ccc(C(=O)OCC(=O)N2CCC(C)CC2)cc1S(=O)(=O)N1CCCCC1,inactive: -4.55%
8,O=C(NN1C(=O)/C(=C/c2ccc(O)cc2)SC1=S)c1cccc(O)c1,inconclusive: 38.3%
9,COCCNC(=O)c1cccc(Nc2nc(-c3ccccc3)c3cc(Cl)ccc3n2)c1,inconclusive: 49.2%
10,O=C(O)c1ccc2c(c1)C(=O)N(c1cccc(C(=O)/C=C/c3ccccc3)c1)C2=O,inactive: -7.15%
11,COc1cccc2cc(-c3nc(-c4cccs4)cs3)c(=O)oc12,inconclusive: 57.4%
12,CCOC(=O)/C(=C/C=C1\Sc2cc(OCC)c(OCC)cc2N1CC)C(C)=O,inconclusive: 153%
13,O=c1[nH]c2cc3c(cc2cc1CN(Cc1nnnn1CC1CCCO1)C1CCCCC1)OCO3 (stereo unspecified),inconclusive: 60.7%
14,O=C(OCCN1C(=O)c2cccc3c(N4CCOCC4)ccc(c23)C1=O)c1ccc(Cl)cc1Cl,inconclusive: 152%
15,Nc1ccc(N=Nc2ccc(O)cc2)c(N)n1,inactive: -2.31%
16,Cc1ccc(NC(=S)Nc2ccc3nc(-c4ccccn4)c(-c4ccccn4)nc3c2)cc1C,inconclusive: 35.8%
17,O=C(O)C1CCC(NSc2ccccc2[N+](=O)[O-])CC1 (stereo unspecified),inactive: 7.73%
18,Cc1cc(NC(=O)CN2C(=O)/C(=C/c3cccc(Br)c3)SC2=S)no1,inconclusive: 40.5%
19,CC1(C)CC(=O)C2=C(C1)Nc1ccccc1S2,inconclusive: 37.5%

row,SMILES,inhibition
1,O=C1c2ccccc2C(=O)N1/N=C/c1ccc(O)c(O)c1O,inconclusive: 72.6%
2,CCCCCC(=O)NNC1=NCC(Cc2cccc(Cl)c2)S1 (stereo unspecified),inactive: -9.62%
3,CCOc1cc(C(=O)N2CCN=C2SC)cc(OCC)c1OCC,inactive: -0.73%
4,O=C1SCC(c2ccc(Cl)cc2Cl)=NN1Cc1nnc(-c2ccccc2)o1,inactive: -1.48%
5,Cn1ncc(N=Cc2c(O)ccc3ccccc23)c1C(=O)Nc1cccc(Cl)c1,inconclusive: 83.6%
6,CC1(C)c2ccccc2N2CC(=O)N(CC(N)=O)C21C (stereo unspecified),inconclusive: 91.9%
7,Nc1cc(C(=O)O)c(N)c2c1C(=O)c1ccccc1C2=O,inconclusive: 83.2%
8,COc1ccccc1/C(C)=N/NC(=O)c1nnn(-c2nonc2N)c1C(C)C,inactive: -2.62%
9,COc1ccc(NC(=S)NC(NC(=O)CCl)C(Cl)(Cl)Cl)c([N+](=O)[O-])c1 (stereo unspecified),inconclusive: 52.2%
10,COc1cc(C(=O)O/N=C2\C=CC(=O)C(C)=C2)cc(OC)c1OC,inactive: -39%
11,CCOc1cc(/C=N/NC(=O)CSc2nnc(C)s2)ccc1OCc1ccccc1Cl,inactive: 8.09%
12,CCc1ccc(C2C(C#N)=C(N)SC(N)=C2C#N)cc1,inconclusive: 91.5%
13,Cc1ccc2c(n1)CC(C)(C)C/C2=N\O,inconclusive: 162%
14,COc1ccc(/C=C2\SC(=N)N(c3nccs3)C2=O)cc1OC,inconclusive: 40%
15,CCCC(N)CCCCCC(=O)O (stereo unspecified),inactive: -9.35%
16,O=C(COC(=O)c1cc(Cl)ccc1O)Nc1cc(C(F)(F)F)ccc1N1CCOCC1,inactive: -3.11%
17,Nc1[nH]c(=O)[nH]c(=O)c1N=Cc1ccccc1,inconclusive: 47.5%
18,Cc1cc(C(=O)N/N=C/c2ccc(-c3ccc([N+](=O)[O-])cc3C)o2)n[nH]1,inconclusive: 50%

# Source: PubChem BioAssay AID588689 (Southern Research Specialized Biocontainment Screening …, 2011)
